The labels stand for the following.
T1: death receptor-6-Fc fusion (UniProt O75509)
T1 sequence: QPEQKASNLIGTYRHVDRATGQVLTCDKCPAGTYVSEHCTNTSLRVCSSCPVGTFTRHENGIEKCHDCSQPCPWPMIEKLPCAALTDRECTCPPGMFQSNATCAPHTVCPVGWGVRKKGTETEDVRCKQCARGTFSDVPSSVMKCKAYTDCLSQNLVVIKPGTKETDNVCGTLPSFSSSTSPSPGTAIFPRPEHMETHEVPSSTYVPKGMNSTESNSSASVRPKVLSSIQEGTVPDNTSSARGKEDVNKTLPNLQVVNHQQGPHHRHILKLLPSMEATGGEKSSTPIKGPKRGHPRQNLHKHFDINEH

Amino acid sequences for entries named in this document (tags omitted). A change or cut given only in a name is not applied to a line headed by its entry. Residues count along the entry.
UniProt P29317: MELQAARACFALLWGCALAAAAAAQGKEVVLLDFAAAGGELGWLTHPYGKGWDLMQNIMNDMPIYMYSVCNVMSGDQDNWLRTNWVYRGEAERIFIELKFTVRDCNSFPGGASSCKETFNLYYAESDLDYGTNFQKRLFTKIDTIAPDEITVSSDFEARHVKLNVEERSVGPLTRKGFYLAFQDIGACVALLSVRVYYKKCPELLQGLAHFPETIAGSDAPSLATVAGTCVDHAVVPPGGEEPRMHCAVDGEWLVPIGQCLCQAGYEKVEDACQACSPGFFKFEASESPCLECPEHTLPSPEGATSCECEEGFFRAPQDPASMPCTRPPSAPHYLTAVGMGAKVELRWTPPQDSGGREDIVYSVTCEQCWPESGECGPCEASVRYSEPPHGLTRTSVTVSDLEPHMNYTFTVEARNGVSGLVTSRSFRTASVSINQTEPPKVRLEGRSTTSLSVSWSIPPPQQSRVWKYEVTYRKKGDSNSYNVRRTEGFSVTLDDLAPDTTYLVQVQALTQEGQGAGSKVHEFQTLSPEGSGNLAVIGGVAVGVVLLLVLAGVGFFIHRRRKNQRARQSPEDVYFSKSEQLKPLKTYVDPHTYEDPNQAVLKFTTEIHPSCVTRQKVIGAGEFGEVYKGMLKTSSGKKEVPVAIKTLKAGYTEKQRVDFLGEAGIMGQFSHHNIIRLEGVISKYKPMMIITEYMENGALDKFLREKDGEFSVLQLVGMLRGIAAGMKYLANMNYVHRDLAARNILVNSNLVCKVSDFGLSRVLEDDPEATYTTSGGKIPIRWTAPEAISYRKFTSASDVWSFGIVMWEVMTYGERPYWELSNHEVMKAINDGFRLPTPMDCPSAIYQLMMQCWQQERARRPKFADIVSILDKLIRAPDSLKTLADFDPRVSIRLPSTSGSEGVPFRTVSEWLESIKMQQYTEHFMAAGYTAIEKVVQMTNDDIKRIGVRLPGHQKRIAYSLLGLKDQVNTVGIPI
hEphA2 receptor on HEK293-hEphA2 cells: residues 24-976 of P29317
UniProt Q03145, residues 26-538: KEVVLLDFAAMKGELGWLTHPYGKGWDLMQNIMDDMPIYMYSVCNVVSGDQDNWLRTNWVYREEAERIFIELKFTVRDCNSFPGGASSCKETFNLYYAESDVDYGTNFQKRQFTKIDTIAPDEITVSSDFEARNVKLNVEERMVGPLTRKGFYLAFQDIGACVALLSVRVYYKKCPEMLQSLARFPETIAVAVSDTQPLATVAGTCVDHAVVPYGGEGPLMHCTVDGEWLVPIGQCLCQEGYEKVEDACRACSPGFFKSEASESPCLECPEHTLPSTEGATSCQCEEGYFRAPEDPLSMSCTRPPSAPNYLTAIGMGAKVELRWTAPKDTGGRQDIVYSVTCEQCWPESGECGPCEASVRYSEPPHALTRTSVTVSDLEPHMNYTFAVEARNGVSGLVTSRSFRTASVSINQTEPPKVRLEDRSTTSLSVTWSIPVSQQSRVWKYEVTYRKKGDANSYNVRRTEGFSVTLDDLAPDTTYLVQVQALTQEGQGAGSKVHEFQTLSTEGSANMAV
UniProt P02769, residues 25-607: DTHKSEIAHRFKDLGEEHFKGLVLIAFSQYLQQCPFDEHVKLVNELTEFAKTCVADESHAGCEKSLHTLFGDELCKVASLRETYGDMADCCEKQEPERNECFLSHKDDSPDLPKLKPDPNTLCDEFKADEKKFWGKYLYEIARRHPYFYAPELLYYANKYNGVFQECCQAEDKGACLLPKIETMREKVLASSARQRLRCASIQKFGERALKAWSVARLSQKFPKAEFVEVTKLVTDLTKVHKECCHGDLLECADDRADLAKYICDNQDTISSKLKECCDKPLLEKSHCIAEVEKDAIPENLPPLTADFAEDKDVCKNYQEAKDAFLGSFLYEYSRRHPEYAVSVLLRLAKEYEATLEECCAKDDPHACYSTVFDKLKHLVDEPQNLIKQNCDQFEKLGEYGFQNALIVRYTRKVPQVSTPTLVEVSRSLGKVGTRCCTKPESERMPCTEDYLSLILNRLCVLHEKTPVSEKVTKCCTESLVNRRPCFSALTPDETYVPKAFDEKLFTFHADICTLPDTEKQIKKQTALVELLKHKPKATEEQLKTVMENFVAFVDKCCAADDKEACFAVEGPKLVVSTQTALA

B1: Abdurin loop DE clone D2, displayed on phage (designed binder)
chain: GPSVFLFPPKPKDTLMISRTPEVTCVVVDVSHEDPEVKFNWYVDGVEVHNAKTKPRQLDPLYGYRVVSVLTVLHQDWLNGKEYKCKVSNKALPAPIEKTISKAK
B2: Abdurin loop DE clone A5, displayed on phage (designed binder)
chain: B1 chain with Q57E, L58R, D59Y, P60V, L61S, G63V
B3: Abdurin loop DE clone B11, displayed on phage (designed binder)
chain: B1 chain with Q57S, L58Y, D59Y, P60A, Y62G
B4: Abdurin loop DE clone B8, displayed on phage (designed binder)
chain: B1 chain with Q57G, L58Y, D59Y, P60A, Y62G
B5: Abdurin H6, purified loop DE binder (designed binder)
chain: B1 chain with Q57R, L58V, Y62G
notes: Abdurin scaffold (human IgG1 CH2 domain), stretch before loop DE; loop DE of clone H6, in place of Glu293-Thr299 (EEQYNST) of the scaffold; Abdurin scaffold (human IgG1 CH2 domain), stretch after loop DE
B6: Abdurin H3, purified non-matured parental loop DE binder (designed binder)
chain: B1 chain with Q57A, L58Y, D59Y, P60A, Y62G
B7: Abdurin E10, purified non-matured parental loop DE binder (designed binder)
chain: B1 chain with L58Y
B8: Abdurin loop DE clone H3, displayed on phage (designed binder)
chain: B1 chain with Q57A, L58Y, D59Y, P60A, Y62G
B9: Abdurin loop DE clone E10, displayed on phage (designed binder)
chain: B1 chain with L58Y

Substitutions are numbered along the chain they refer to. These are yes or no findings as the source states them, for the method shown. Some results given as binding are weak or reduced against the parent protein; the word gives no strength. For some of these results: Tags and fused reporters may be left off the sequences shown.

The target in the first assay is hEphA2 receptor on HEK293-hEphA2 cells (human) (UniProt P29317). The assay is described as follows: ELISA; cell-based phage ELISA on HEK293-hEphA2 cells induced with 100 nM doxycycline for 24 hours, fixed in 2% PFA; 100 ul phage supernatant for 2 hours; anti-M13-HRP. In general terms: An ELISA detects its analyte on a solid surface through an enzyme-linked reagent.
Consider B1, for which the binding result is given as “binds”.

As for B2, the binding result is listed as “binds”.

Turning to B3, the binding result was “binds”.

On to B4, for which the binding result is “binds”.

For the molecule B5, the binding result is given as “binds”.

The target of the next assay is T2, hEphA2-Fc (human, UniProt P29317 24-537).
T2 construct: EphA2, human, as Fc fusion coated on 96-well plates; Probably the extracellular domain; also called huEphA2
Kind of assay: ELISA; end-point titration ELISA in 96-well plates coated with hEphA2-Fc or mEphA2-Fc; purified Abdurins titrated; detected by anti-FLAG M2-HRP; the constant is printed as 'Affinity (M)'; both purified.
Take B6: the binding result is recorded as “no binding”.

Turning to B7, the binding entry was “no binding”.

In a further assay the target is T3, murine EphA2-Fc fusion protein (mouse, UniProt Q03145 26-538).
T3 construct: ephrin receptor tyrosine kinase class A2 (EphA2), mouse, extracellular domain as Fc chimera; Biotinylated in-house (EZ-Link Sulfo-NHS-LC-Biotin) for the CIS display selections and the screening ELISA; also called mEphA2-Fc; mEphA2; source: bought: R&D Systems
Kind of assay: ELISA; phage ELISA: proteins coated on Nunc Maxisorp plates (range of 10 μg/ml in PBS, overnight 4°C), phage supernatants in 3% MPBST 1 hour at RT, detected with anti-M13-HRP; only the target purified.
As to B1, the binding result is listed as “binds”.

On to B2, for which the binding result is reported as “binds”.

Regarding B3, the binding result is recorded as “binds”.

With B4, the binding result is listed as “binds”.

B5: the binding entry was “binds”.

The target of another assay is bovine serum albumin (bovine) (UniProt P02769). The description is as above.
For B1, the binding entry is on record as “no binding”.

As to B2, the binding result is recorded as “no binding”.

Consider B8, for which the binding result is reported as “no binding”.

As for B3, the binding result was “no binding”.

Take B4: the binding result is on record as “no binding”.

In the case of B9, the binding result is recorded as “no binding”.

As for B5, the binding result is on record as “no binding”.

In a further assay the target is T1, death receptor-6-Fc fusion. The description is as above.
B1: the binding result is “no binding”.

For B2, the binding result is on record as “no binding”.

On to B8, for which the binding entry is reported as “no binding”.

For the molecule B3, the binding entry is “no binding”.

Regarding B4, the binding result is “no binding”.

Regarding B9, the binding entry is given as “no binding”.

For B5, the binding result is “no binding”.

Another assay addresses hEphA2 receptor on HEK293-hEphA2 cells (human) (UniProt P29317). The assay is described as follows: condition: only cells without doxycycline induction; ELISA; cell-based phage ELISA on HEK293-hEphA2 cells in the absence of doxycycline, fixed in 2% PFA; phage supernatants; anti-M13-HRP.
In the case of B1, the binding entry is reported as “no binding”.

With B2, the binding result was “no binding”.

As to B3, the binding result is given as “no binding”.

For the molecule B4, the binding entry is “no binding”.

Regarding B5, the binding entry was “no binding”.

These data come from article PMC4552014, “High Affinity Binders to EphA2 Isolated from Abdurin Scaffold Libraries; Characterization, Binding and Tumor Targeting” (PLoS ONE, 2015).
